One assay has as its system HSkMC. Put plainly: cytotoxicity call (relative viability < 0.9). The following applies: 10 µM.
In a further assay the test system is HepG2. Put plainly: cytotoxicity call (relative viability < 0.9). Conditions: 10 µM.
The next assay relates to S. aureus RN4220. Briefly: growth inhibition call (relative growth <= 0.2). The following applies: 50 µM.

Some of the results follow.

With `Cc1c(C)c2c(c(C)c1OC(=O)CCC(=O)O)CC[C@@](C)(CCC[C@H](C)CCC[C@H](C)CCCC(C)C)O2`, the cytotoxicity call in the assay on HSkMC and in the assay with HepG2 was “inactive” in each case. Also, in the assay with S. aureus RN4220, the growth inhibition call was “inactive”.
For `C[C@H](CO)N1C[C@H](C)[C@@H](CN(C)Cc2ccc(C(=O)Nc3ccccc3N)cc2)Oc2ccc(NC(=O)Nc3ccc4c(c3)OCO4)cc2CC1=O`, the cytotoxicity call in the assay with HSkMC and in the assay on HepG2 was “inactive” each time. The growth inhibition call in the assay with S. aureus RN4220 was “inactive”.
As to `C[C@@H]1CCCCO[C@H](CN(C)C(=O)Cc2ccccc2)[C@@H](C)CN([C@@H](C)CO)C(=O)c2cc(NC(=O)Nc3ccccc3)ccc2O1`, the cytotoxicity call in the assay on HSkMC and in the assay with HepG2 was “inactive” in each case. Besides, the growth inhibition call in the assay with S. aureus RN4220 is “inactive”.
As to `C=CCC(N)(CC=C)c1ccc(C)cc1`, the cytotoxicity call with HSkMC and in the assay on HepG2 was “inactive” throughout. Besides, the growth inhibition call in the assay with S. aureus RN4220 is “inactive”.
Turning to `C[C@@H]1CN([C@@H](C)CO)C(=O)c2cc(NC(=O)Nc3cccc4ccccc34)ccc2O[C@@H](C)CCCCO[C@H]1CN(C)CC1CC1`, the cytotoxicity call in the assay on HSkMC and in the assay on HepG2 was “inactive” in each case. In addition, the growth inhibition call with S. aureus RN4220 was “inactive”.
In the case of `C[C@H]1CN([C@@H](C)CO)C(=O)Cc2cc(NS(=O)(=O)c3ccc(F)cc3)ccc2O[C@@H]1CN(C)Cc1ccc(Cl)c(Cl)c1`, the cytotoxicity call in the assay on HSkMC is “inactive”. In the assay with HepG2, the cytotoxicity call is “active”. For the same molecule, the growth inhibition call in the assay with S. aureus RN4220 was “inactive”.
With `O=C(C[C@@H]1CC[C@@H]2[C@H](COC[C@@H](O)CN2C(=O)Nc2ccc(F)cc2)O1)NCCCN1CCOCC1`, the cytotoxicity call in the assay with HSkMC and with HepG2 was “inactive” in each case. The growth inhibition call in the assay on S. aureus RN4220 was “inactive”.
As to `CCCC#Cc1cnc2c(c1)C(=O)N([C@@H](C)CO)C[C@@H](C)[C@@H](CN(C)S(=O)(=O)c1cn(C)cn1)O2`, the cytotoxicity call with HSkMC and in the assay on HepG2 was “inactive” in each case. In addition, the growth inhibition call in the assay with S. aureus RN4220 is “inactive”.
On to `COc1ccc(Cn2cc[nH]c(=O)c2=O)cc1`, for which the cytotoxicity call in the assay with HSkMC and in the assay on HepG2 was “inactive” each time. The growth inhibition call in the assay with S. aureus RN4220 is “inactive”.
With `CC(=O)O[C@H]1[C@@H](OC(C)=O)C(C)(C)/C=C/[C@@](C)(O)C(=O)[C@]2(O)[C@H]([C@@H](OC(C)=O)[C@](C)(OC(C)=O)[C@H]2OC(C)=O)[C@H]2OC(=O)CC[C@@]2(OC(C)=O)[C@@H]1OC(=O)C(C)C`, the cytotoxicity call in the assay with HSkMC and in the assay with HepG2 was “inactive” in each case. In addition, in the assay with S. aureus RN4220, the growth inhibition call was “inactive”.
On to `C[C@@H]1CN([C@@H](C)CO)C(=O)c2cc(NC(=O)c3ccccc3)ccc2O[C@@H](C)CCCCO[C@@H]1CN(C)C(=O)C1CCCCC1`, for which the cytotoxicity call in the assay on HSkMC and in the assay with HepG2 was “inactive” throughout. Further, the growth inhibition call in the assay on S. aureus RN4220 is “inactive”.
In the case of `C[C@H](CO)N1C[C@H](C)[C@H](CN(C)S(=O)(=O)c2cn(C)cn2)Oc2c(NS(=O)(=O)c3ccccc3)cccc2C1=O`, the cytotoxicity call with HSkMC and in the assay on HepG2 was “inactive” each time. The growth inhibition call in the assay on S. aureus RN4220 is “inactive”.
For `COc1ccc(S(=O)(=O)Nc2ccc3c(c2)C(=O)N(C)C[C@@H](OC)[C@H](C)CN(C)[C@H](C)CO3)cc1`, the cytotoxicity call in the assay with HSkMC and in the assay on HepG2 was “inactive” each time. For the same molecule, in the assay on S. aureus RN4220, the growth inhibition call was “inactive”.
As for `COc1ccc(CN(C)C[C@@H]2OCCCC[C@@H](C)Oc3ccc(NC(=O)Nc4ccccc4)cc3C(=O)N([C@@H](C)CO)C[C@H]2C)cc1`, the cytotoxicity call in the assay with HSkMC and in the assay with HepG2 was “inactive” throughout. In addition, the growth inhibition call in the assay with S. aureus RN4220 was “inactive”.
Consider `O=C(C[C@H]1CC[C@@H]2[C@H](COC[C@H](O)CN2Cc2cc(F)ccc2F)O1)N[C@H]1CCN(Cc2ccccc2)C1`, for which the cytotoxicity call in the assay on HSkMC and in the assay with HepG2 was “inactive” throughout. Moreover, the growth inhibition call with S. aureus RN4220 was “inactive”.
`Cn1cnc(S(=O)(=O)N[C@H]2CC[C@@H](CC(=O)Nc3ccccc3)O[C@@H]2CO)c1`: the cytotoxicity call in the assay on HSkMC and in the assay on HepG2 was “inactive” in each case. Moreover, the growth inhibition call in the assay on S. aureus RN4220 was “inactive”.
Consider `CC(C)C#Cc1cnc2c(c1)C(=O)N([C@H](C)CO)C[C@@H](C)[C@H](CN(C)C(=O)c1ccc3c(c1)OCO3)O2`, for which the cytotoxicity call with HSkMC and in the assay with HepG2 was “inactive” each time. Further, the growth inhibition call with S. aureus RN4220 was “inactive”.
As for `C[C@@H]1CN([C@@H](C)CO)C(=O)c2cc(NS(=O)(=O)c3ccc(F)cc3)ccc2O[C@@H]1CN(C)C(=O)Nc1ccc(C(F)(F)F)cc1`, the cytotoxicity call in the assay with HSkMC and in the assay on HepG2 was “inactive” in each case. Further, the growth inhibition call in the assay with S. aureus RN4220 was “inactive”.
Turning to `COc1ccccc1S(=O)(=O)N[C@@H]1CC[C@@H](CCNC(=O)C2CC2)O[C@H]1CO`, the cytotoxicity call with HSkMC and with HepG2 was “inactive” each time. Moreover, the growth inhibition call in the assay with S. aureus RN4220 was “inactive”.
Turning to `C[C@H](CO)N1C[C@H](C)[C@@H](CN(C)S(=O)(=O)c2ccc(F)cc2)OCCCC[C@H](C)Oc2ccc(NC(=O)Nc3ccc(C(F)(F)F)cc3)cc2C1=O`, the cytotoxicity call with HSkMC and in the assay on HepG2 was “inactive” each time. Moreover, in the assay on S. aureus RN4220, the growth inhibition call was “inactive”.
Consider `CN1CCN2CCN(C(=O)c3cccc(N)c3)C[C@@H]2C1=O`, for which the cytotoxicity call with HSkMC and with HepG2 was “inactive” each time. For the same molecule, in the assay with S. aureus RN4220, the growth inhibition call is “inactive”.
`C[C@@H]1CN([C@H](C)CO)C(=O)Cc2cc(NC(=O)Nc3ccccc3)ccc2O[C@@H]1CN(C)Cc1ccc(C(=O)Nc2ccccc2N)cc1`: the cytotoxicity call in the assay with HSkMC was “inactive”. For the same molecule, the cytotoxicity call in the assay with HepG2 is “active”. In addition, the growth inhibition call in the assay on S. aureus RN4220 is “inactive”.
Take `CCCC#Cc1ccc2c(c1)O[C@@H](CN(C)S(=O)(=O)c1cccc(F)c1)[C@@H](C)CN([C@H](C)CO)S2(=O)=O`: the cytotoxicity call with HSkMC and in the assay on HepG2 was “inactive” each time. In addition, the growth inhibition call in the assay with S. aureus RN4220 is “inactive”.
`C[C@H](CO)N1C[C@H](C)[C@H](CN(C)S(=O)(=O)c2cn(C)cn2)Oc2ccc(NC(=O)Nc3ccccc3)cc2C1=O`: the cytotoxicity call in the assay with HSkMC and with HepG2 was “inactive” throughout. In addition, the growth inhibition call in the assay with S. aureus RN4220 was “inactive”.
Regarding `Cc1noc(C)c1S(=O)(=O)Nc1ccc2c(c1)C(=O)N([C@@H](C)CO)C[C@H](C)[C@@H](CN(C)S(=O)(=O)c1cn(C)cn1)OCCCC[C@H](C)O2`, the cytotoxicity call in the assay on HSkMC (human skeletal muscle cells) and in the assay with HepG2 was “inactive” throughout. Further, the growth inhibition call in the assay on S. aureus RN4220 is “inactive”.
On to `C[C@H]1CC/C=C\[C@H]2O[C@@]34C=CCN(Cn5nnc6ccccc65)C(=O)[C@H]3N(CCO)C(=O)[C@@H]4[C@@H]2C(=O)O1`, for which the cytotoxicity call in the assay with HSkMC and in the assay on HepG2 was “inactive” each time. For the same molecule, the growth inhibition call in the assay with S. aureus RN4220 is “inactive”.

Values taken from the antibiotic and cytotoxicity screens of Wong et al. (2023).
